According to PubChem BioAssay AID485281 (National Center for Advancing Translational Sciences (NCATS), 2010):
Where “and” joins values, the source holds several entries; their conditions need not be identical. Equal values may be shown once. About 260 (0.074%) of roughly 350,000 compounds were called active. Inconclusive means that the source gave no clear call. Such entries were picked first, then a sample of the others. Calls follow the shape of the dose curve; as a rule, active = well fitted inhibition curve with a large enough effect; inconclusive = small, poorly fitted or top-dose-only effect; inactive = no such curve, though single readings can be large or run the other way. A potency beside an inconclusive call is a rough fit, not a confirmed value.

molecular target: Ferritin light chain (Equus caballus) (UniProt P02791); test: qHTS Assay for Identification of Novel General Anesthetics; conditions: apoferritin/1-aminoanthracene competitive binding, fluorescence; activity change, negative = displacement: at 77.5 µM (top of the series); also: nearly all actives have a fitted effect of over 20% in size
In short: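 Horse-spleen apoferritin (10 uM) in 50% saturated 1-aminoanthracene in PBS was incubated 10 min at room temperature with compound. Fluorescence (ex 380, em 535 nm) was normalized to free and bound 1-AMA, with concentration-response fitted by a four-parameter Hill equation.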
% is scaled to controls: 0 for no effect and ±100 for the full control effect; potency is read from the fitted curve at half-maximal effect; tags tell the direction and shape of the fitted curve.

Sequence of UniProt P02791 (P02791 whole entry, looked up): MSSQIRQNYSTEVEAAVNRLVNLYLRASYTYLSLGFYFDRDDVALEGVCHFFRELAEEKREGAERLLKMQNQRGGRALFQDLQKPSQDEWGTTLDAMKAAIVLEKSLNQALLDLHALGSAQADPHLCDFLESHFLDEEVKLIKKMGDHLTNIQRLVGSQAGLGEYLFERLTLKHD

Activity change, negative = displacement, inactive:
CC(C)Oc1ccccc1/C=N/Nc1ccccc1[N+](=O)[O-] 4.37%
Cn1c(=O)c2c(nc(Br)n2CC(=O)c2cccs2)n(C)c1=O -9.07%
O=C(NCCN1CCN(c2ccccc2F)CC1)c1cccn2c(=O)c3ccccc3nc12 -14%
COc1ccccc1NS(=O)(=O)c1cc([N+](=O)[O-])ccc1N/N=C/c1sc(N2CCOCC2)nc1-c1ccccc1 -11.9%
O=C1c2cccc3c(Cl)ccc(c23)C(=O)N1O -22.4%
CC1CN(C(=O)/C=C/c2ccc(SC(F)F)cc2)CC(C)O1 (stereo not given) 5.18%
O=C(CN1CCN(Cc2ccccc2)CC1)NCc1ccc(Cl)cc1 -6.48%
CCCCc1c(O)c2ccccc2n(CCCC)c1=O 4.24%
O=C(OCC(=O)N1CCCc2ccccc21)c1cncc(Br)c1 -2.8%
CC(C)c1ccc(C(=O)CC2(O)C(=O)N(CCc3ccccc3)c3ccc(Cl)cc32)cc1 (stereo not given) -18.8%
COc1ccc(Cl)cc1NC(=O)c1noc2c1CCCC2 -9.74%
Cc1ccc(NC(=O)CCN2C(=O)C3C4CCC(C4)C3C2=O)cc1[N+](=O)[O-] (stereo not given) -11.8%
CNC(=O)c1cccc(-n2c(C)nc3cccnc32)c1C -7.31%
Cn1c(SCC(=O)c2ccccc2)nnc1-c1cccs1 1.68%
Cc1cccc(N2CCN(C(=O)c3cnn(-c4cccc(Cl)c4C)c3C3CCNCC3)CC2)c1C -13.4%
O=c1cc(-c2cccc(F)c2)[nH]c2cc(F)ccc12 3.99% [at 163 µM]
CCCc1nc2ccccc2n2c(-c3ccc(C)cc3)c3c(=O)n(C)c(=O)n(C)c3c12 -1.78%
COCCNC(=O)c1cc2nc3c(c(C(F)(F)F)n2n1)CCc1ccccc1-3 -3%
COc1ccc(Nc2nc3ccccc3c3nnc(C)n23)cc1Cl -11.2%
Cn1nccc1C(=O)Nc1ccc2c(c1)OCO2 -6.05%
O=C(CSc1nc2c(c(=O)[nH]1)CN(Cc1ccc3c(c1)OCO3)CC2)Nc1cccc(Cl)c1 -6.13%
Oc1ccc(Br)cc1/C=N/NC(=S)NCCc1ccccc1 -10.8%
CCOc1cc(/C=C/C(=O)c2ccc(C)cc2)ccc1OCC(=O)N(C)C -4.82%
CC(=O)c1ccc(NC(=O)c2sc3nc(N4CCOCC4)c4c(c3c2N)CCCC4)cc1 -20.6%

Potency, inconclusive:
CCCC[C@H]1COCCS(=O)(=O)N1Cc1cccc(Cl)c1 44.7 µM [inhibitor, partial curve]
O=C(Nc1ccc2c(c1)OCO2)C1CCCCC1 31.6 µM [inhibitor, partial curve]
Cc1ccc(S(=O)(=O)NCCSCc2ccccc2)cc1 14.1 µM [inhibitor, partial curve]
CC(C)n1nc(C(=O)Nc2nnc(SCc3c(Cl)cccc3Cl)s2)c2ccccc2c1=O 3.55 µM [inhibitor, partial curve]
O=C(CSc1nccn1-c1ccccc1)c1ccc(Br)cc1 35.5 µM [inhibitor, partial curve]
CC(c1ccccc1)n1cnc2ccccc21 (stereo not given) 15.8 µM [inhibitor, partial curve]
CCc1ccc(NC(=O)CSC2=Nc3ccccc3C3=NC(CC(=O)NCc4cccs4)C(=O)N23)cc1 (stereo not given) 35.5 µM [inhibitor, partial curve]
Cc1nnc(SCC(=O)Nc2sc3c(c2C#N)CCCCC3)n1N 39.8 µM [inhibitor, partial curve]
O=S(=O)(Cc1ccccc1Cl)CC(O)COc1ccccc1Cl (stereo not given) 31.6 µM [inhibitor, single point]
COc1cccc(NC(=O)NC2CCCCCCC2)c1 25.1 µM [inhibitor, partial curve]
Cc1ccc(NCc2cccnc2)c(Br)c1 14.1 µM [inhibitor, partial curve]
Cc1cc2ccccn2c1C(=O)c1ccc([N+](=O)[O-])o1 28.2 µM [inhibitor, partial curve]
O=C(/C=C/c1ccc(O)c(O)c1)OCCc1ccccc1 31.6 µM [inhibitor, partial curve] and 20 µM [inhibitor, partial curve]
O=C(CCC(=O)Nc1ccccc1)N/N=C/c1ccncc1 44.7 µM [inhibitor, single point]
COc1ccc(-c2csc(NC(=O)CCn3cnc4ccccc4c3=O)n2)cc1OC 10 µM [inhibitor, partial curve]
CC(C)(C)c1nnc(NC(=O)NS(=O)(=O)c2ccccc2)s1 50.1 µM [inhibitor, partial curve]
CCOCCCNC(=O)C1CCN(c2nc3ccc(Cl)cc3[nH]2)CC1 50.1 µM [inhibitor, single point]
COc1ccc(NS(=O)(=O)c2ccc(O)c(NC(=O)c3ccc(S(=O)(=O)N4CCCCCC4)cc3)c2)cc1 31.6 µM [inhibitor, partial curve]
CCN(Cc1ccccc1)C(=O)COC(=O)c1n[nH]c2ccccc12 28.2 µM [inhibitor, partial curve]
O=P(OC1CCCCC1)(OC1CCCCC1)C(O)c1ccccc1 (stereo not given) 31.6 µM [inhibitor, partial curve]
Cc1cccc(OCCCCc2c(C)n[nH]c2C)c1C 35.5 µM [inhibitor, partial curve]
CN(C)c1ccc(S(=O)(=O)N(C)C)cc1[N+](=O)[O-] 35.5 µM [inhibitor, partial curve]
CC(=O)Nc1ccc(S(=O)(=O)N2CCN(c3ccc(C)c(C)c3)CC2)cc1 39.8 µM [inhibitor, partial curve]
O=C(NC1=NCCS1)C12CC3CC(CC(C3)C1)C2 50.1 µM [inhibitor, single point]
CCOc1ccc(-c2c(C(=O)N/N=C/c3ccc(OC(C)C)cc3)nnn2-c2nonc2N)cc1 6.31 µM [inhibitor, full curve]
Cc1ccc2c(c1)N(CC(=O)NCc1ccccc1Br)C(=O)c1cccnc1O2 31.6 µM [inhibitor, partial curve]
O=C(Nc1ncc2c(n1)CC(c1ccco1)CC2=O)c1ccc(Cl)cc1 (stereo not given) 35.5 µM [inhibitor, partial curve]
Cc1cccc(C(=O)NC(=S)Nc2ccccc2C(F)(F)F)c1 31.6 µM [inhibitor, partial curve]
CC1CCCCN1S(=O)(=O)c1ccc(NC(=O)CSc2nnnn2C)cc1 (stereo not given) 14.1 µM [inhibitor, partial curve]
COc1ccc(Cc2nc3ccc(S(=O)(=O)N4CCOCC4)cc3[nH]2)cc1 14.1 µM [inhibitor, partial curve]
Clc1ccc(Nc2ncn[nH]2)c(Cl)c1 28.2 µM [inhibitor, partial curve]
CCOc1ccc(C(=O)Nc2ccc(S(=O)(=O)N3CCOCC3)cc2)cc1OCC 39.8 µM [inhibitor, partial curve]
Cc1cccc(OCc2occc2C(=O)Nc2cccc(-n3cnnn3)c2)c1 7.08 µM [inhibitor, partial curve]
CCOC(=O)COc1ccc(S(=O)(=O)Nc2ccc(C)cc2)cc1 20 µM [inhibitor, partial curve]
CCN(C(=O)CCn1cnc2onc(-c3ccc(F)cc3)c2c1=O)c1ccc(OC)cc1 1.26 µM [inhibitor, full curve]
COC(=O)c1cccc(Oc2cccc(Cl)n2)c1 35.5 µM [inhibitor, partial curve]
CCc1cccc(-n2nnc(-c3nc(-c4ccccc4Cl)no3)c2N)c1 7.08 µM [inhibitor, full curve]
CCCNC(=O)Cn1cnc2sc(C(=O)Nc3cc(OC)c(OC)c(OC)c3)c(C)c2c1=O 22.4 µM [inhibitor, partial curve]
COc1ccccc1-n1cnc2cc(NS(=O)(=O)c3ccccc3)ccc21 11.2 µM [inhibitor, partial curve]
Cc1cc(C)n(-c2ccc(C(=O)OCC(=O)Nc3ccc(S(=O)(=O)N4CCCCC4)cc3)cc2)n1 3.98 µM [inhibitor, full curve]
Cc1ccc(C2=NS(=O)(=O)N(C)C(C(=O)NCc3ccc(F)cc3)=C2)cc1 12.6 µM [inhibitor, partial curve]
COc1ccc(S(=O)(=O)N(Cc2ccccc2)Cc2nc3ccccc3c(=O)[nH]2)cc1 14.1 µM [inhibitor, partial curve]
O=C(COC(=O)c1c2c(nc3ccccc13)CCCC2)c1cccs1 22.4 µM [inhibitor, partial curve]
Cc1nc(S(=O)(=O)NC2CCCCC2)c(C#N)c(C)c1Cl 44.7 µM [inhibitor, partial curve]
CCOc1ccc(-n2c(SCc3cc(=O)oc4cc(C)c(C(C)C)cc34)nnc2-c2cccnc2)cc1 50.1 µM [inhibitor, single point]
COc1ccc(C2=NS(=O)(=O)N(C)C(C(=O)N3CCCCC3)=C2)cc1OC 11.2 µM [inhibitor, partial curve]
